According to PubChem BioAssay (NCI):
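These data come from cells grown in 96-well plates and exposed to compound for 48 hours at five concentrations. GI50 = concentration required for 50% inhibition of growth.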 Some entries of the source have several records that differ or are many. They are shown here; other results are not. An entry can have further records. For some assays here: The tests behind the records often covered other concentration ranges, not given here; some values may only mark the edge of a range. Marks in square brackets tell the records apart. Letters count within one entry. For some assays here: The records of an entry repeat one measurement in other runs, samples, wells, individuals or studies.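 TGI denotes the concentration required for complete inhibition of growth.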

Legend:
Experiment in all cases: NCI tumour cell line growth inhibition, 48 h
DMS 114 small cell lung = test system: DMS 114 small cell lung
RPMI-8226 leukemia = test system: RPMI-8226 leukemia
RXF 393 renal = test system: RXF 393 renal
OVCAR-5 ovarian = test system: OVCAR-5 ovarian
DU-145 prostate = test system: DU-145 prostate
PC-3 prostate = test system: PC-3 prostate
SK-OV-3 ovarian = test system: SK-OV-3 ovarian
HCC-2998 colon = test system: HCC-2998 colon
MDA-MB-435 = test system: MDA-MB-435
A498 renal = test system: A498 renal
UO-31 renal = test system: UO-31 renal
HCT-116 colon = test system: HCT-116 colon
OVCAR-8 ovarian = test system: OVCAR-8 ovarian
SK-MEL-5 melanoma = test system: SK-MEL-5 melanoma
CAKI-1 renal = test system: CAKI-1 renal
SN12K1 renal = test system: SN12K1 renal
OVCAR-3 ovarian = test system: OVCAR-3 ovarian
HS 578T breast = test system: HS 578T breast
CCRF-CEM leukemia = test system: CCRF-CEM leukemia
TK-10 renal = test system: TK-10 renal
LOX IMVI melanoma = test system: LOX IMVI melanoma
DMS 273 small cell lung = test system: DMS 273 small cell lung
UACC-62 melanoma = test system: UACC-62 melanoma
COLO 205 colon = test system: COLO 205 colon
HOP-62 NSCLC = test system: HOP-62 NSCLC
NCI-H460 lung = test system: NCI-H460 lung
NCI-H23 lung = test system: NCI-H23 lung
P388/ADR leukemia = test system: P388/ADR leukemia
NCI-H522 lung = test system: NCI-H522 lung
SR leukemia = test system: SR leukemia
UACC-257 melanoma = test system: UACC-257 melanoma
SF-539 CNS = test system: SF-539 CNS
EKVX NSCLC = test system: EKVX NSCLC
HCT-15 colon = test system: HCT-15 colon
MDA-N = test system: MDA-N
A549 NSCLC = test system: A549 NSCLC
XF 498 CNS = test system: XF 498 CNS
MOLT-4 leukemia = test system: MOLT-4 leukemia
SK-MEL-2 melanoma = test system: SK-MEL-2 melanoma
ACHN renal = test system: ACHN renal
MALME-3M melanoma = test system: MALME-3M melanoma
MDA-MB-231 breast = test system: MDA-MB-231 breast
HOP-92 NSCLC = test system: HOP-92 NSCLC
OVCAR-4 ovarian = test system: OVCAR-4 ovarian
HL-60(TB) leukemia = test system: HL-60(TB) leukemia
P388 leukemia = test system: P388 leukemia
M14 melanoma = test system: M14 melanoma
NCI/ADR-RES ovarian = test system: NCI/ADR-RES ovarian
MCF7 breast = test system: MCF7 breast

## Nc1nc(=S)c2ncn(C3CC(O)C(CO)O3)c2[nH]1 (centres undefined)
DMS 114 small cell lung
  TGI: 227 µM [sample A, mean of 5 tests] and 2.79 mM [sample B, mean of 5 tests]
RPMI-8226 leukemia
  TGI: 19.3 µM [sample A, mean of 10 tests] and 1.46 mM [sample B, mean of 9 tests]
RXF 393 renal
  TGI: 21.6 µM [sample A, mean of 9 tests] and 3.05 mM [sample B, mean of 9 tests]
OVCAR-5 ovarian
  TGI: 432 µM [sample A, mean of 10 tests] and > 4.76 mM [sample B, mean of 9 tests]
DU-145 prostate
  GI50: 334 nM [sample A, mean of 3 tests] and 70.8 µM [sample B, mean of 3 tests]
  TGI: 272 µM [sample A, mean of 3 tests] and > 4.28 mM [sample B, mean of 3 tests]
PC-3 prostate
  TGI: 127 µM [sample A, mean of 4 tests] and > 3.9 mM [sample B, mean of 4 tests]
SK-OV-3 ovarian
  TGI: 31.5 µM [sample A, mean of 11 tests] and 1.03 mM [sample B, mean of 9 tests]
HCC-2998 colon
  TGI: 44.3 µM [sample A, mean of 6 tests] and 1.06 mM [sample B, mean of 7 tests]
MDA-MB-435
  TGI: 26.7 µM [sample A, mean of 4 tests] and 1.49 mM [sample B, mean of 4 tests]
A498 renal
  TGI: 51.4 µM [sample A, mean of 11 tests] and 1.63 mM [sample B, mean of 10 tests]
UO-31 renal
  TGI: 152 µM [sample A, mean of 10 tests] and 3.91 mM [sample B, mean of 9 tests]
HCT-116 colon
  TGI: 127 µM [sample A, mean of 10 tests] and 3.28 mM [sample B, mean of 9 tests]
OVCAR-8 ovarian
  TGI: 116 µM [sample A, mean of 11 tests] and 1.42 mM [sample B, mean of 10 tests]
SK-MEL-5 melanoma
  TGI: 10.8 µM [sample A, mean of 9 tests] and 1.25 mM [sample B, mean of 9 tests]
CAKI-1 renal
  TGI: 15.5 µM [sample A, mean of 9 tests] and 3.3 mM [sample B, mean of 8 tests]
SN12K1 renal
  GI50: 422 nM [sample A, mean of 6 tests] and 45.9 µM [sample B, mean of 5 tests]
  TGI: 17 µM [sample A, mean of 6 tests] and 1.94 mM [sample B, mean of 5 tests]
OVCAR-3 ovarian
  TGI: 21.7 µM [sample A, mean of 9 tests] and 684 µM [sample B, mean of 8 tests]
HS 578T breast
  TGI: 270 µM [sample A, mean of 4 tests] and 3.27 mM [sample B, mean of 4 tests]
CCRF-CEM leukemia
  GI50: 262 nM [sample A, mean of 9 tests] and 25.3 µM [sample B, mean of 8 tests]
  TGI: 25.1 µM [sample A, mean of 9 tests] and 3.92 mM [sample B, mean of 8 tests]
TK-10 renal
  TGI: 16 µM [sample A, mean of 3 tests] and 799 µM [sample B, mean of 4 tests]
LOX IMVI melanoma
  GI50: 262 nM [sample A, mean of 8 tests] and 16.1 µM [sample B, mean of 10 tests]
  TGI: 9.7 µM [sample A, mean of 8 tests] and 1.76 mM [sample B, mean of 10 tests]
DMS 273 small cell lung
  GI50: 384 nM [sample A, mean of 4 tests] and 38.8 µM [sample B, mean of 5 tests]
  TGI: 21 µM [sample A, mean of 4 tests] and 400 µM [sample B, mean of 5 tests]
UACC-62 melanoma
  GI50: 314 nM [sample A, mean of 10 tests] and 58.7 µM [sample B, mean of 10 tests]
  TGI: 8.59 µM [sample A, mean of 10 tests] and 792 µM [sample B, mean of 10 tests]
COLO 205 colon
  TGI: 8.02 µM [sample A, mean of 8 tests] and 583 µM [sample B, mean of 8 tests]
HOP-62 NSCLC
  TGI: 66.7 µM [sample A, mean of 9 tests] and 3.06 mM [sample B, mean of 10 tests]
NCI-H460 lung
  TGI: 12.9 µM [sample A, mean of 9 tests] and 790 µM [sample B, mean of 9 tests]
NCI-H23 lung
  TGI: 129 µM [sample A, mean of 9 tests] and 2.6 mM [sample B, mean of 7 tests]
P388/ADR leukemia
  GI50: 274 nM [sample A, mean of 4 tests] and 74.1 µM [sample B, mean of 5 tests]
  TGI: 268 µM [sample A, mean of 4 tests] and > 5 mM [sample B, mean of 5 tests]
NCI-H522 lung
  TGI: 20.4 µM [sample A, mean of 7 tests] and 1.27 mM [sample B, mean of 8 tests]
SR leukemia
  GI50: 206 nM [sample A, mean of 3 tests] and 95.5 µM [sample B, 1 test] and 36.5 µM [sample B, mean of 2 tests]
  TGI: 5.62 µM [sample A, mean of 3 tests] and > 5 mM [sample B, mean of 2 tests]
UACC-257 melanoma
  TGI: 355 µM [sample A, mean of 8 tests] and > 3.75 mM [sample B, mean of 8 tests]
SF-539 CNS
  TGI: 275 µM [sample A, mean of 10 tests] and 3.25 mM [sample B, mean of 8 tests]
EKVX NSCLC
  TGI: 118 µM [sample A, mean of 9 tests] and 1.32 mM [sample B, mean of 9 tests]
HCT-15 colon
  TGI: 99.2 µM [sample A, mean of 7 tests] and 1.63 mM [sample B, mean of 10 tests]
MDA-N
  TGI: 62.4 µM [sample A, mean of 3 tests] and 3.54 mM [sample B, mean of 4 tests]
A549 NSCLC
  TGI: 121 µM [sample A, mean of 10 tests] and 2.41 mM [sample B, mean of 10 tests]
XF 498 CNS
  TGI: 3.9 µM [sample A, mean of 4 tests] and 278 µM [sample B, mean of 5 tests]
MOLT-4 leukemia
  TGI: 26.8 µM [sample A, mean of 11 tests] and 2 mM [sample B, mean of 9 tests]
SK-MEL-2 melanoma
  TGI: 15.4 µM [sample A, mean of 9 tests] and 1.54 mM [sample B, mean of 9 tests]
ACHN renal
  TGI: 128 µM [sample A, mean of 3 tests] and 1.34 mM [sample B, mean of 4 tests]
MALME-3M melanoma
  TGI: 80.4 µM [sample A, mean of 9 tests] and 2.31 mM [sample B, mean of 9 tests]
MDA-MB-231 breast
  TGI: 187 µM [sample A, mean of 4 tests] and 2.52 mM [sample B, mean of 4 tests]
HOP-92 NSCLC
  TGI: 61.8 µM [sample A, mean of 7 tests] and 2.39 mM [sample B, mean of 7 tests]
OVCAR-4 ovarian
  TGI: 99.2 µM [sample A, mean of 10 tests] and 1.66 mM [sample B, mean of 9 tests]
HL-60(TB) leukemia
  TGI: 26 µM [sample A, mean of 9 tests] and 1.34 mM [sample B, mean of 7 tests]
P388 leukemia
  GI50: 324 nM [sample A, mean of 7 tests] and 29 µM [sample B, mean of 5 tests]
  TGI: 27.6 µM [sample A, mean of 7 tests] and > 3.8 mM [sample B, mean of 5 tests]
M14 melanoma
  GI50: 312 nM [sample A, mean of 4 tests] and 67.6 µM [sample B, mean of 4 tests]
  TGI: 20.2 µM [sample A, mean of 4 tests] and 2.5 mM [sample B, mean of 4 tests]
NCI/ADR-RES ovarian
  TGI: 111 µM [sample A, mean of 10 tests] and 2.06 mM [sample B, mean of 9 tests]
MCF7 breast
  TGI: 142 µM [sample A, mean of 7 tests] and 2.4 mM [sample B, mean of 8 tests]
